# Test results reported in PubChem BioAssay AID686970 (National Center for Advancing Translational Sciences (NCATS), 2013).
# Hit rate of the full screen: of about 360,000 compounds, about 6,000 (1.7%) were called active. The inconclusive results got no clear call from the source; some entries with a clear call stand among them for comparison. Calls come from the whole dose curve; as a rule, active = well fitted cell-killing curve with a large enough effect; inconclusive = small, poorly fitted or top-dose-only effect, or effect the other way; inactive = flat fitted curve, though single readings scatter. No potency is given beside an inconclusive call; the fits are too rough.
# Assay: qHTS for induction of synthetic lethality in tumor cells producing 2HG: qHTS for the HT-1080-NT fibrosarcoma cell line;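 note: NT is the 2HG producing partner of a matched IDH1 knockdown line; nearly all actives have a fitted effect of over 55% in size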;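 for activity, negative = less viability: 0% = DMSO-treated cells and -100% = media-only wells without cells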
# Details: HT-1080-NT fibrosarcoma viability, CellTiter-Glo ATP luminescence, 48 h; activity, negative = less viability: at 46.1 µM (top of the series) unless noted
# Procedure, shortened: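 Compounds were tested in concentration-response format on HT-1080-NT cells for 48 hours at 37 degrees C. Cell viability came from CellTiter-Glo luminescence; curves were classified by r2, response magnitude and activity.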
# Potency is the fitted concentration of half-maximal effect; tags give direction and shape of the fitted curve.
SMILES,Potency,"activity, negative = less viability"
Cn1c(=O)c([N+](=O)[O-])c(Cl)c2ccccc21,active: 5.8 µM,–
COc1ccc(OC)c(N(CC(=O)N2CCN(c3cc(Cl)ccc3C)CC2)S(C)(=O)=O)c1,"inconclusive [cytotoxic, single point]",–
O=C(O)CC/C(=N\Nc1ccc(S(=O)(=O)N2CCOCC2)cc1[N+](=O)[O-])c1cccs1,"inconclusive [cytotoxic, single point]",–
O=C(O)CC(c1cccc(O)c1)N1Cc2ccccc2C1=O (centres undefined),inactive,–
O=[N+]([O-])c1cccc(CON=Cc2ccccc2O)c1,inactive,–
O=C(Nc1ccnn1C1CCN(Cc2ccccc2F)CC1)C1CCCC1,inactive,–
Cc1cccc(NC(=O)c2ccccc2O)c1C,"inconclusive [cytotoxic, single point]",–
COc1cc2[nH]c(C(=O)NCC3CCCO3)cc2c(OC)c1OC (centres undefined),"inconclusive [rising, single point]",–
CCCOc1ccc(F)cc1-c1cc(C(=O)NCc2cc(C(F)(F)F)cc(C(F)(F)F)c2)[nH]n1,"inconclusive [cytotoxic, single point]",–
C=CCSc1cc(C)nc2c(-c3ccccc3)c(C)nn12,"inconclusive [cytotoxic, partial curve]",–
CCCN(CC(=O)Nc1ccccc1C)C(=O)c1cnc(C)cn1,inactive,–
Nc1[nH]n2c(=O)cc(-c3ccccc3)nc2c1N=Nc1ccccc1,"inconclusive [cytotoxic, full curve]",–
COc1cc(C(=O)N/N=C/c2ccc3c(c2)c2ccccc2n3C)ccc1O,"inconclusive [cytotoxic, single point]",–
O=C(Nc1ccc(Cl)cc1)Nc1ccccc1Sc1ncc([N+](=O)[O-])s1,"inconclusive [cytotoxic, single point]",–
CCOC(=O)[C@]12CCCC=C1N(CCC1=CCCCC1)C(=O)[C@H](CC(=O)N1CCCCC1)C2,"inconclusive [cytotoxic, single point]",–
Fc1ccc(NC(=S)Nc2cccnc2)c(Cl)c1,inactive,–
Cc1ccc(NC(=O)CS(=O)CC(=O)NCCCc2ccccc2)cc1Cl (centres undefined),"inconclusive [cytotoxic, single point]",–
Cc1sc(NC(=O)c2ccco2)c(C(c2cccnc2)N2CCN(c3ccc(F)cc3)CC2)c1C (centres undefined),"inconclusive [cytotoxic, single point]",–
Cc1ccc(C)c(NC(=S)NCCSc2ccc(Cl)cc2)c1,–,inconclusive: 31.3%
Cc1ccc(-n2cc(CNCCCn3ccnc3C)c(-c3ccc(F)cc3)n2)cc1,active: 20.6 µM,–
O=C(CSc1nc2ccccc2c(=O)n1Cc1ccccc1)NCc1ccco1,"inconclusive [cytotoxic, single point]",–
COc1cc(/C=C2\C(=O)ON=C2c2ccccc2)cc(Cl)c1O,"inconclusive [cytotoxic, single point]",–
CCC(C)N1CC(=O)N2Cc3[nH]c4ccccc4c3C[C@H]2C1=O (some centres undefined),"inconclusive [rising, single point]",–
COc1ccc(-c2cc(C(F)(F)F)n3nc(C(=O)N4CCN(C(=O)c5ccco5)CC4)cc3n2)cc1,inactive,–
CCOC(=O)C(=CNc1cc(C)ccn1)C(=O)OCC,inactive,–

SMILES,Potency,"activity, negative = less viability"
Cc1cc(C)nc(Sc2nc(Nc3ccccc3)nc(Sc3nc(C)cc(C)n3)n2)n1,inactive,–
Cn1nc([N+](=O)[O-])nc1N1CCOCC1,inactive,–
Cc1cccc(Nc2nnc(SCC(=O)NC(=O)Nc3ccc4c(c3)OCCO4)s2)c1,active: 23.1 µM,–
CC1(C)CC(N2CCCC2)=CC(=[N+]2CCCCCC2)C1,"inconclusive [cytotoxic, partial curve, poor fit]",–
COc1ccc(NC(=O)c2cccs2)cc1OC,"inconclusive [cytotoxic, single point]",–
Cc1cc2occ(CC(=O)NC3(C)CCS(=O)(=O)C3)c2cc1C (centres undefined),inactive,–
Cc1cc(Br)ccc1NC(=O)CN(C)C(=O)C1CSC2(C)CCC(=O)N12 (centres undefined),inactive,–
CCc1c(C(=O)N/N=C/c2cccs2)nnn1-c1nonc1N,inactive,–
CCOC(=O)Cc1c(C)nc2c(-c3ccc(Cl)cc3)c(C)[nH]n2c1=O,active: 12.6 µM,–
C(=C\c1ccco1)/c1ccc2ccccc2n1,"inconclusive [cytotoxic, partial curve]",–
CCCC(C(=O)Nc1cccc(S(=O)(=O)N2CCCC2)c1)c1ccccc1 (centres undefined),"inconclusive [cytotoxic, partial curve, poor fit]",–
COc1ccccc1NC(=O)Cc1nnc(SCC(=O)c2ccc(F)cc2)n1C,inactive,–
CN(C)CCOc1nc(-c2ccccc2)nc2c1oc1ccccc12,"inconclusive [cytotoxic, partial curve]",–
CN1CCCC1CCNS(=O)(=O)c1ccc(Br)cc1 (centres undefined),"inconclusive [cytotoxic, single point]",–
N#CC1=C(N)Oc2cc(O)c(C=Nc3ccccc3)cc2C1c1ccccc1 (centres undefined),"inconclusive [cytotoxic, single point]",–
CCOC(=O)Cn1c(=O)c2c(nc3n2CCCN3Cc2ccccc2)n(C)c1=O,inactive,–
COc1ccc(NC(=S)N(C)CC2COc3ccccc3O2)cc1 (centres undefined),inactive,–
O[C@@H]1CN(CC2CCCCC2)[C@@H](c2ccccc2)C[C@H]1n1cc(C2CC2)nn1,inactive,–
COc1cc(C(=O)Nc2ccc3c(c2)CCCN3C(=O)c2ccco2)c([N+](=O)[O-])cc1OC,inactive,–
CCOCCn1cnc2sc(C(=O)NCCCN3CCOCC3)c(C)c2c1=O,inactive,–
CCOc1cc2nc(-c3ccc(OC)c(OC)c3)nc(N3CCOCC3)c2cc1OC,"inconclusive [cytotoxic, partial curve]",–
CC1(C)c2ccccc2N2CC(=O)NC21/C=C/c1ccco1 (centres undefined),inactive,–
Cc1ccc(S(=O)(=O)N(C)c2ccc(OCC(=O)Nc3nnc(C4CC4)s3)cc2)cc1,inactive,–
CN(Cc1ccc(Cl)cc1)C(C(=O)NC1CCCCC1)c1cc2ccccc2o1 (centres undefined),"inconclusive [cytotoxic, single point]",–
